According to patent US12551573B2, “Compositions and methods for the targeting of PCSK9” (Scribe Therapeutics Inc., priority 2022, dated 2026):

B1: DOMAIN_10123: one of the nine most effective repressor domains (protein, listed as Rattus norvegicus)
chain: ALVTFEDVAVRFTQEEWALLDPSQKILYRDVMRETYRNLTSVGINWECWDLEACFRSLGRNLRVQVVKRKCELTNSGPCAE
B2: DOMAIN_27604: one of the nine most effective repressor domains (protein, listed as Ailuropoda melanoleuca)
chain: LLTFEDVAVSFSEEEWELLDPPQKTLYNDVMQENYETVISLGLKLKNDTGNDQPISISALEMQASGSKVLRKARMKVAQKT
B3: DOMAIN_7694: one of the nine most effective repressor domains (protein, listed as Columba livia)
chain: QDVVTFKDVAIYFSPEEWVRLSAGQRELYQEVMLDNYELVTSLDRESKLLYKMDPEEESCEGVPYSSADSGAPDSSSTSAC
B4: DOMAIN_30173: one of the nine most effective repressor domains (protein)
chain: VAFRDVIVDFTQEEWQQLKPAQKDLYRDVMMEIYWNLVSLDLETEGDMNEPDPEKDSWEDRTSIVVVEGLMRNGAQGYACEKAGIQGCRV
modifications: Phyllostomus discolor
B5: DOMAIN_20505: one of the nine most effective repressor domains (protein, listed as Chlorocebus sabaeus)
chain: SQESVAFEDVAVYFTTKEWAIMVPAERALYRDVMLENYEAVAFVAVPPTSKPALVSHLEQGKESCFIRPPGVLSRSDWRAG
B6: DOMAIN_17905: one of the nine most effective repressor domains (protein)
chain: EMGLLTFRDIAIEFSLEEWQCLDCAQRNLYRDVMLENYRNLVSLGIAVSKPDLITCLEQNKESQNIKRNKMVAKHPVMHSH
modifications: Pan troglodytes
B7: DOMAIN_15507: one of the nine most effective repressor domains (protein)
chain: SKAPITFGDLAIYFSQEEWEWLSPIQKDLYEDVMLENYRNLVSLGLSFRRPNVITLLEKGKAPWMVEPARRRRGPDSGSKV
modifications: Cebus imitator
B8: DOMAIN_16744 (protein, listed as Enhydra lutris)
chain: QAEVTFEDVAVLFSREEWGRLGPAQRGLYRDVMLETYRNLVSLGAGPAGPKPGVITQLERGDEPWVLDAQGTEGKERLRVS
B9: DOMAIN_16703 (protein, listed as Phascolarctos cinereus)
chain: CQETLTFKDVAVDFTREEWGHLGPAQRDLYKEVMLDNYRNLVSLGLQVSKPDVIFQLERGESPSMLEGKDSSDPCPEFLSQ
B10: DOMAIN_16771 (protein, listed as Saimiri boliviensis)
chain: FQEPVTFEDVVVYFTQNEWTSLQPSQRALYREVMLENYATVTSLSAFPFSKPDLIFRLEQGEAAWGSDPWTLAGEEAPRGL
B11: DOMAIN_17027 (protein, listed as Balaenoptera acutorostrata)
chain: PQVLVSFEEVAVLLSQEEWGRLSPAQKGLYRDVMMETYGNLVSLGLQGSKPDVISKLEQGKEPWAPHSPRIEGSWIWRRRR
B12: DOMAIN_16865 (protein, listed as Papio anubis)
chain: MVSFEDVAVLLSQEEWDCLIPAQRGLYRDVMLETYGNLVSLGLQASKPDVISRLEQGDEPWTPHILRTQRSWSWRHKRECY
B13: DOMAIN_16994 (protein, listed as Odocoileus virginianus)
chain: RPRAVKFGDVALYFSREEWGCLRPAQRALYRDVMQETYGHLGALGCAGPKPALISWLERNTDDWEPAALDPQECPKGVAVQ
B14: DOMAIN_16809 (protein)
chain: KDQGSLTLEDVAVDFTWEEWQLLAPAQKDLYRDVMLENYSNLLSIGYQASKPDALSRLERGEPWPVEDEIHSQICPEMRKD
modifications: Delphinapterus leucas
B15: DOMAIN_16773 (protein, listed as Balaenoptera acutorostrata)
chain: HQEVVTFEDVAVYFTQTEWAGLSPAQRALYRSVMLEIYGNLTSLGYPVPKPALVSLLERGDLPWGLETRDDRPAQGTKDIC
B16: DOMAIN_16973 (protein)
chain: B15 chain with R69Q, R72P, D79H
modifications: Delphinapterus leucas
B17: DOMAIN_16876 (protein, listed as Callorhinus ursinus)
chain: LQKSVTFEDVAVYFTQTEWDGLSPAQRALYRDVMLENYGNVASLGFSLFKPAVISQLEGAGELGGPSPLVDGTETGPQGLW
B18: DOMAIN_16953 (protein, listed as Callorhinus ursinus)
chain: SQSLVTFGDVAVDFSQEEWEWLNSAQRNLYRSVMLENYRNLVSLGLCVSKPDMISSLEQRKEPWMVKRKLTRGRCPDLKTV
B19: DOMAIN_16936 (protein, listed as Rhinopithecus roxellana)
chain: LKDLVTFKDVAIDFSQEEWQWMNPAQKHLYRSMMLENYQSLVSLGLCISKPYVISLLEQGREPWEMTSEMTRSPFSDWESI
B20: DOMAIN_17023 (protein, listed as Sapajus apella)
chain: SQEPVTFADVAVVFTPEEWVFLDSTQRSLYRDVMLENYRNLASVAGDQLRKPNASSDLEQRGEQWNTERGVISDTCPEPQL
B21: DOMAIN_17001 (protein, listed as Rhinolophus ferrumequinum)
chain: SEDLVTFRDVAVDFSQEEWEQLNSAQRGLYRDVMLENYRSLVSLGVSVSKPDVISLLEQGKEPWVVKEGTRGTYSDWKYAF
B22: DOMAIN_16776 (protein, listed as Callorhinus ursinus)
chain: ARASLSFEDVAVGFSWEEWQLLAPSQKDLYRDVMLENYRNLVSVGYEASKPDSVFQLEQGEPPWMVEGAAQSQTCQEEIWE
B23: DOMAIN_16856 (protein, listed as Ursus maritimus)
chain: B22 chain with E47Q, P51L, V54L, L57S, E61G, M65T, Q76P
B24: DOMAIN_16763 (protein, listed as Monodelphis domestica)
chain: AQVLVTFQDVAVDFTQEEWRLLDLGQKELYKEVMLENVQNMLFLGLPVPREDWISHFDQGRAPWMLEGEGPSNSRLDGQRR
B25: DOMAIN_16734 (protein, listed as Leptonychotes weddellii)
chain: PQVLVSFEDVAVFLSREEWGCLGPAQRGLYSNVMLETYRNLISLGLQGSKPDVISRLEKGEEPWAPYSPKIEEGWIRSHRS
B26: DOMAIN_27385 (protein, listed as Octodon degus)
chain: LLTFEDVAVHFSEEEWQLLDPNQKTLYNEVMWDICEAASFVGLKFKNDTGNAEPSSVSALEIQAAERQGSKTRKNVARKRK
B27: DOMAIN_27506 (protein, listed as Bos mutus)
chain: QPQGTMTFKDVEVTFSQDEWGLLDASQRNLYRDVMLENYGNMASVVGPFTKPALISWLEAREPWGLNVQGVQFKGNPGAAP
B28: DOMAIN_27060 (protein, listed as Gopherus agassizii)
chain: VTFEEVAVYFSEEEWALLDPGQRALYRDVMQENYETVISLGKDFCPLSPEQVALCGMLCGRSEGHVSQSPEQRETCKRQHK

tested on: B2M locus; assay: B2M repression (HLA-negative cells by flow cytometry) in HEK293T cells transfected with LTRP plasmids; type: cell-based, human; details: LTRP5 without ADD, scaffold 316 spacer 7.165, days 6/7 to 26/27, vs LTRP5-ZIM3
Method: Each construct was tested in triplicate.
Each construct was tested in triplicate. […] Cells were harvested for repression analysis at day 5, day 12, day 21, and day 51 post-transfection.
Each construct was tested in triplicate. […] Cells were harvested for repression analysis at day 8, day 13, day 20, and day 27 post-transfection. […] In addition, cells were also harvested on day 5 post-transfection for gDNA extraction for bisulfite sequencing to assess off-target methylation at the non-targeted VEGFA locus, which was performed using similar methods as described in Example 13.
HEK293T cells were transfected as described in Example 14, except that the cells were transfected with 50 ng each of a plasmid encoding the LTRP construct and a plasmid encoding the gRNA. […] 72 of the 95 top repressor domains were assessed together in one experiment where B2M expression was measured at 7, 14, 19, and 26 days after transfection, and the data shown in Tables 57-60.

Molecule	B2M repression by LTRP5 constructs with enhanced repressor domains
B1	most effective repressor domains
B2	most effective repressor domains
B3	most effective repressor domains
B4	most effective repressor domains
B5	most effective repressor domains
B6	most effective repressor domains
B7	most effective repressor domains

tested on: HBEGF locus; assay: not given; type: cell-based, human; details: high-throughput screen of dXR repression of the HBEGF gene; abundance of each domain in the library before and after diphtheria toxin selection; HEK293T cells

Molecule	Log2 (fold change)
B8	3.637
B9	3.3969
B10	3.3025
B11	3.131
B12	3.9619
B13	3.0575
B14	2.4357
B15	4.5309
B16	3.0187
B17	3.2183
B18	3.3286
B19	2.9808
B20	2.5472
B21	3.045
B22	3.0877
B23	2.7613
B24	2.9244
B25	3.4791

same assay, conditions: high-throughput screen of dXR repression of the HBEGF gene; change in abundance of each domain in the library before and after diphtheria toxin selection

Molecule	Log2 (fold change)
B1	3.6356
B2	2.8198
B26	4.1339
B3	3.7111
B4	2.2538
B5	3.4989
B27	3.8121
B6	2.5038
B28	2.7943
B7	3.8531

Substitutions are numbered along the chain they refer to.
